These results are taken from patent publication US20170306033A1 (Amgen, published 2017).

Substitutions are numbered along the chain they refer to.

The target of one experiment is human CGRP receptor (human, UniProt Q16602 23-461; O60894 27-148). Put plainly: cell-based or functional assay.
Another experiment has as its target T1, human PAC1 receptor (human, UniProt P41586 21-468).
T1 sequence: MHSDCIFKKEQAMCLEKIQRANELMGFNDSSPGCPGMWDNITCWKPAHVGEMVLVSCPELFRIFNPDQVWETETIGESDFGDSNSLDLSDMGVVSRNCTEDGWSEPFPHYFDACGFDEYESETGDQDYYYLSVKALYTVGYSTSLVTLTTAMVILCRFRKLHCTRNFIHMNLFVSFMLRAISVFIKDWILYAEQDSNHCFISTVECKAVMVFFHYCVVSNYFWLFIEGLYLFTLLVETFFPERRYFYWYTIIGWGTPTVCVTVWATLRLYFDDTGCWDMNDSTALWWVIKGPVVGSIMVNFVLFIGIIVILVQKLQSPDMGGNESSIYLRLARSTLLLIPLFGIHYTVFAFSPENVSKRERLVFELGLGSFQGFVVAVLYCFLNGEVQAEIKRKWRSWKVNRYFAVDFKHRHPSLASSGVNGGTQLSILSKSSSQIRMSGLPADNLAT
Put plainly: cell-based or functional assay.

Chain of human CGRP receptor (Q16602 23-461 limits assumed, chain 1 of 2): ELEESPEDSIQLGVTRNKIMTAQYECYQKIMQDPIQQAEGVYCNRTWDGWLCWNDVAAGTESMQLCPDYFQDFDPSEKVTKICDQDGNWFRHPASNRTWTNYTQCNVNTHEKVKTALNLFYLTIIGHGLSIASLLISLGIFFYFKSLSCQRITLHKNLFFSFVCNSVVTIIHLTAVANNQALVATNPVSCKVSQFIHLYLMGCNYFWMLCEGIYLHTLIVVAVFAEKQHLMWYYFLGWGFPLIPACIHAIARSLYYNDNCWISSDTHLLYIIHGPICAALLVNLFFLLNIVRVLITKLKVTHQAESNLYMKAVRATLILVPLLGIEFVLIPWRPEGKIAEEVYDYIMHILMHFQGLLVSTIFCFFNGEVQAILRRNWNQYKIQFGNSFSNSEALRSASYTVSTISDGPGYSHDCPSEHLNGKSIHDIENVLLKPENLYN
Chain of human CGRP receptor (O60894 27-148 limits assumed, chain 2 of 2, further chain): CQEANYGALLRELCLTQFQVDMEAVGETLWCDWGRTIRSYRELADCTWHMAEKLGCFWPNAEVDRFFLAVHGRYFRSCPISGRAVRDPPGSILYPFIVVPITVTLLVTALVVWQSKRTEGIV

B1: iPS:328046 (bispecific antibody, human IgG1, kappa, lambda, N297G)
light 1: DIVMTQSPDSLAVSLGERATINCKSSQSVLYSSNNKNFLTWYQQKPGQPPKLLIYRASTRESGVPDRFSGSGSGTDFTLTISSLQAEDVAVYFCQQYYSAPFTFGPGTRVDIKRTVAAPSVFIFPPSDEQLKSGTASVVCLLNNFYPREAKVQWKVDNALQSGNSQESVTEQDSKDSTYSLESTLTLSKADYEKHKVYACEVTHQGLSSPVTKSFNRGEC
heavy 1: QVQLQESGPGLVKPSETLSLTCTVSGGSISSGGYYWSWIRQPPGKGLEWIGYIYYSGNTYYNPSLKSRVTISVDTSKNQFSLKLRSVTAADTAVYYCTRGGAARGMDVWGQGTTVTVSSASTKGPSVFPLAPSSKSTSGGTAALGCLVKDYFPEPVTVSWNSGALTSGVHTFPAVLQSSGLYSLKSVVTVPSSSLGTQTYICNVNHKPSNTKVDKKV[left out - human IgG1 Fc with R292C N297G V302C K370D K392D K409D (EU numbers)]
light 2: QSVLTQSPSASGTPGQRVTISCSGSSSNIGSNYVYWYQQLPGAAPKLLILRNNQRPSGVPDRFSGSKSGTSASLTISGLRSEDEADYYCAAWDDSLSGWVFGGGTKLTVLGQPKANPTVTLFPPSSEELQANKATLVCLISDFYPGAVTVAWKADGSPVKAGVETTKPSKQSNNKYAAKSYLSLTPEQWKSHRSYSCQVTHEGSTVEKTVAPTECS
heavy 2: [left out - about 100 residues]DRTGYSISWSSYYYYYGMDVWGQGTTVTVSSASTKGPSVFPLAPSSKSTSGGTAALGCLVKDYFPEPVTVSWNSGALTSGVHTFPAVLQSSGLYSLESVVTVPSSSLGTQTYICNVNHKPSNTKVDKKVEPKSCDKTHTCPPCPAPELLGGPSVFLFPPKPKDTLMISRTPEVTCVVVDVSHEDPEVKFNWYVDGVEVHNAKTKPCEEQYGSTYRCVSVLTVLHQDWLNGKEYKCKVSNKALPAPIEKTISKAKGQPREPQVYTLPPSRKKMTKNQVSLTCLVKGFYPSDIAVEWESNGQPENNYKTTPPVLKSDGSFFLYSKLTVDKSRWQQGNVFSCSVMHEALHNHYTQKSLSLSPGK
As for B1, the “% inhibition of human CGRPR” value with human CGRP receptor was determined as 73%. The “% inhibition of human PAC1” value with human PAC1 receptor came out at 3%.

B2: iPS:327267 (bispecific antibody, human IgG1, kappa, lambda)
light 1: DIQMTQSPSSLSASVGDRITITCRASQSISRYLNWYQQKPGKAPKLLIYAASSLQSGIPSRFSGSGSGTDFTLTINSLQPEDFATYFCQQSYSPPFTFGPGTKVDIKRTVAAPSVFIFPPSDEQLKSGTASVVCLLNNFYPREAKVQWKVDNALQSGNSQESVTEQDSKDSTYSLESTLTLSKADYEKHKVYACEVTHQGLSSPVTKSFNRGEC
heavy 1: QVQLQQSGPGLVKPSQTLSLTCAISGDSVSSNSATWNWIRQSPSRGLEWLGRTYYRSKWSNHYAVSVKSRITINPDTSKSQFSLQLNSVTPEDTAVYYCARGTWKQLWFLDHWGQGTLVTVSSASTKGPSVFPLAPSSKSTSGGTAALGCLVKDYFPEPVTVSWNSGALTSGVHTFPAVLQSSGLYSLKSVVTVPSSSLGTQTYICNVNHKPSNTKVDKKV[left out - human IgG1 Fc with changes]
light 2: B1 light 2
heavy 2: [left out - about 100 residues]DRTGYSISWSSYYYYYGMDVWGQGTTVTVSSASTKGPSVFPLAPSSKSTSGGTAALGCLVKDYFPEPVTVSWNSGALTSGVHTFPAVLQSSGLYSLESVVTVPSSSLGTQTYICNVNHKPSNTKVDKKVEPKSCDKTHTCPPCPAPELLGGPSVFLFPPKPKDTLMISRTPEVTCVVVDVSHEDPEVKFNWYVDGVEVHNAKTKPCEEQYGSTYRCVSVLTVLHQDWLNGKEYKCKVSNKALPAPIEKTISKAKGQPREPQVYTLPPSRKEMTKNQVSLTCLVKGFYPSDIAVEWESNGQPENNYKTTPPVLKSDGSFFLYSKLTVDKSRWQQGNVFSCSVMHEALHNHYTQKSLSLSPGK
As for B2, in the experiment with human CGRP receptor, the “% inhibition of human CGRPR” value came to 75%. Besides, the “% inhibition of human PAC1” value with human PAC1 receptor was 29%.

B3: iPS:327110 (bispecific antibody, human IgG1, kappa, lambda, N297G)
light 1: B1 light 1 with N22H
heavy 1: B1 heavy 1 with E16Q, P42H, V73G
light 2: B1 light 2 with S7P, L50F, T75A
heavy 2: [left out - about 100 residues]DRTGYSISWSSYYYYYGMDVWGQGTTVTVSSASTKGPSVFPLAPSSKSTSGGTAALGCLVKDYFPEPVTVSWNSGALTSGVHTFPAVLQSSGLYSLESVVTVPSSSLGTQTYICNVNHKPSNTKVDKKVEPKSCDKTHTCPPCPAPELLGGPSVFLFPPKPKDTLMISRTPEVTCVVVDVSHEDPEVKFNWYVDGVEVHNAKTKPCEEQYGSTYRCVSVLTVLHQDWLNGKEYKCKVSNKALPAPIEKTISKAKGQPREPQVYTLPPSRKKMTKNQVSLTCLVKGFYPSDIAVEWESNGQPENNYKTTPPVLKSDGSFFLYSKLTVDKSRWQQGNVFSCSVMHEALHNHYTQKSLSLSPGK
With B3, in the experiment with human CGRP receptor, the “% inhibition of human CGRPR” value came to 80%. Also, the “% inhibition of human PAC1” value with human PAC1 receptor stood at 71%.

B4: iPS:327276 (bispecific antibody, human IgG1, kappa, lambda, N297G)
light 1: B2 light 1
heavy 1: QVQLQQSGPGLVKPSQTLSLTCAISGDSVSSNSATWNWIRQSPSRGLEWLGRTYYRSKWSNHYAVSVKSRITINPDTSKSQFSLQLNSVTPEDTAVYYCARGTWKQLWFLDHWGQGTLVTVSSASTKGPSVFPLAPSSKSTSGGTAALGCLVKDYFPEPVTVSWNSGALTSGVHTFPAVLQSSGLYSLKSVVTVPSSSLGTQTYICNVNHKPSNTKVDKKV[left out - human IgG1 Fc with R292C N297G V302C K370D K392D K409D (EU numbers)]
light 2: B1 light 2
heavy 2: [left out - about 100 residues]DRTGYSISWSSYYYYYGMDVWGQGTTVTVSSASTKGPSVFPLAPSSKSTSGGTAALGCLVKDYFPEPVTVSWNSGALTSGVHTFPAVLQSSGLYSLESVVTVPSSSLGTQTYICNVNHKPSNTKVDKKVEPKSCDKTHTCPPCPAPELLGGPSVFLFPPKPKDTLMISRTPEVTCVVVDVSHEDPEVKFNWYVDGVEVHNAKTKPCEEQYGSTYRCVSVLTVLHQDWLNGKEYKCKVSNKALPAPIEKTISKAKGQPREPQVYTLPPSRKKMTKNQVSLTCLVKGFYPSDIAVEWESNGQPENNYKTTPPVLKSDGSFFLYSKLTVDKSRWQQGNVFSCSVMHEALHNHYTQKSLSLSPGK
For B4, the “% inhibition of human CGRPR” value with human CGRP receptor was 80%. The “% inhibition of human PAC1” value with human PAC1 receptor came to 87%.

B5: iPS:327109 (bispecific antibody, human IgG1, kappa, lambda, N297G)
light 1: B2 light 1
heavy 1: B4 heavy 1
light 2: B1 light 2 with S7P, L50F, T75A
heavy 2: [left out - about 100 residues]DRTGYSISWSSYYYYYGMDVWGQGTTVTVSSASTKGPSVFPLAPSSKSTSGGTAALGCLVKDYFPEPVTVSWNSGALTSGVHTFPAVLQSSGLYSLESVVTVPSSSLGTQTYICNVNHKPSNTKVDKKVEPKSCDKTHTCPPCPAPELLGGPSVFLFPPKPKDTLMISRTPEVTCVVVDVSHEDPEVKFNWYVDGVEVHNAKTKPCEEQYGSTYRCVSVLTVLHQDWLNGKEYKCKVSNKALPAPIEKTISKAKGQPREPQVYTLPPSRKKMTKNQVSLTCLVKGFYPSDIAVEWESNGQPENNYKTTPPVLKSDGSFFLYSKLTVDKSRWQQGNVFSCSVMHEALHNHYTQKSLSLSPGK
On to B5, for which the “% inhibition of human CGRPR” value with human CGRP receptor was found to be 73%. Moreover, in the experiment with human PAC1 receptor, the “% inhibition of human PAC1” value was 82%.

B6: iPS:327102 (bispecific antibody, human IgG1, kappa, lambda)
light 1: B1 light 1 with N22H
heavy 1: QVQLQESGPGLVKPSQTLSLTCTVSGGSISSGGYYWSWIRQHPGKGLEWIGYIYYSGNTYYNPSLKSRVTISGDTSKNQFSLKLRSVTAADTAVYYCTRGGAARGMDVWGQGTTVTVSSASTKGPSVFPLAPSSKSTSGGTAALGCLVKDYFPEPVTVSWNSGALTSGVHTFPAVLQSSGLYSLKSVVTVPSSSLGTQTYICNVNHKPSNTKVDKKV[left out - human IgG1 Fc with changes]
light 2: B1 light 2 with S7P, L50F, T75A
heavy 2: [left out - about 100 residues]DRTGYSISWSSYYYYYGMDVWGQGTTVTVSSASTKGPSVFPLAPSSKSTSGGTAALGCLVKDYFPEPVTVSWNSGALTSGVHTFPAVLQSSGLYSLESVVTVPSSSLGTQTYICNVNHKPSNTKVDKKVEPKSCDKTHTCPPCPAPELLGGPSVFLFPPKPKDTLMISRTPEVTCVVVDVSHEDPEVKFNWYVDGVEVHNAKTKPCEEQYGSTYRCVSVLTVLHQDWLNGKEYKCKVSNKALPAPIEKTISKAKGQPREPQVYTLPPSRKEMTKNQVSLTCLVKGFYPSDIAVEWESNGQPENNYKTTPPVLKSDGSFFLYSKLTVDKSRWQQGNVFSCSVMHEALHNHYTQKSLSLSPGK
For the molecule B6, the “% inhibition of human CGRPR” value with human CGRP receptor came out at 74%. Moreover, the “% inhibition of human PAC1” value with human PAC1 receptor came out at 47%.

B7: iPS:327268 (bispecific antibody, human IgG1, kappa, lambda)
light 1: B1 light 1 with N22H
heavy 1: QVQLQESGPGLVKPSQTLSLTCTVSGGSISSGGYYWSWIRQHPGKGLEWIGYIYYSGNTYYNPSLKSRVTISGDTSKNQFSLKLRSVTAADTAVYYCTRGGAARGMDVWGQGTTVTVSSASTKGPSVFPLAPSSKSTSGGTAALGCLVKDYFPEPVTVSWNSGALTSGVHTFPAVLQSSGLYSLKSVVTVPSSSLGTQTYICNVNHKPSNTKVDKKV[left out - human IgG1 Fc with changes]
light 2: B1 light 2
heavy 2: [left out - about 100 residues]DRTGYSISWSSYYYYYGMDVWGQGTTVTVSSASTKGPSVFPLAPSSKSTSGGTAALGCLVKDYFPEPVTVSWNSGALTSGVHTFPAVLQSSGLYSLESVVTVPSSSLGTQTYICNVNHKPSNTKVDKKVEPKSCDKTHTCPPCPAPELLGGPSVFLFPPKPKDTLMISRTPEVTCVVVDVSHEDPEVKFNWYVDGVEVHNAKTKPCEEQYGSTYRCVSVLTVLHQDWLNGKEYKCKVSNKALPAPIEKTISKAKGQPREPQVYTLPPSRKEMTKNQVSLTCLVKGFYPSDIAVEWESNGQPENNYKTTPPVLKSDGSFFLYSKLTVDKSRWQQGNVFSCSVMHEALHNHYTQKSLSLSPGK
As for B7, in the experiment with human CGRP receptor, the “% inhibition of human CGRPR” value is 79%. Moreover, in the experiment with human PAC1 receptor, the “% inhibition of human PAC1” value was found to be 38%.

B8: iPS:326414 (bispecific antibody, human IgG1, kappa, lambda)
light 1: B2 light 1
heavy 1: QVQLQQSGPGLVKPSQTLSLTCAISGDSVSSNSATWNWIRQSPSRGLEWLGRTYYRSKWSNHYAVSVKSRITINPDTSKSQFSLQLNSVTPEDTAVYYCARGTWKQLWFLDHWGQGTLVTVSSASTKGPSVFPLAPSSKSTSGGTAALGCLVKDYFPEPVTVSWNSGALTSGVHTFPAVLQSSGLYSLKSVVTVPSSSLGTQTYICNVNHKPSNTKVDKKV[left out - human IgG1 Fc with changes]
light 2: B1 light 2 with S7P, L50F, T75A
heavy 2: [left out - about 100 residues]DRTGYSISWSSYYYYYGMDVWGQGTTVTVSSASTKGPSVFPLAPSSKSTSGGTAALGCLVKDYFPEPVTVSWNSGALTSGVHTFPAVLQSSGLYSLESVVTVPSSSLGTQTYICNVNHKPSNTKVDKKVEPKSCDKTHTCPPCPAPELLGGPSVFLFPPKPKDTLMISRTPEVTCVVVDVSHEDPEVKFNWYVDGVEVHNAKTKPCEEQYGSTYRCVSVLTVLHQDWLNGKEYKCKVSNKALPAPIEKTISKAKGQPREPQVYTLPPSRKEMTKNQVSLTCLVKGFYPSDIAVEWESNGQPENNYKTTPPVLKSDGSFFLYSKLTVDKSRWQQGNVFSCSVMHEALHNHYTQKSLSLSPGK
For the molecule B8, the “% inhibition of human CGRPR” value with human CGRP receptor is 70%. Also, the “% inhibition of human PAC1” value with human PAC1 receptor was 58%.
